Measured values from the antibiotic and cytotoxicity screens of Wong et al. (2023).
The other results are listed elsewhere or left out.

What follows are compounds tested on HepG2 (assay: cytotoxicity call (relative viability < 0.9)). Settings: 10 µM.

SMILES	cytotoxicity call
NCCCC[C@H](N)C(=O)O	inactive
Cc1ccc(S(=O)(=O)Nc2ccc3c(c2)C(=O)N([C@H](C)CO)C[C@H](C)[C@H](CN(C)Cc2ccc(C(F)(F)F)cc2)OCCCC[C@@H](C)O3)cc1	active
C[C@@H]1CN([C@@H](C)CO)C(=O)c2cccc(NC(=O)C3CCOCC3)c2O[C@H]1CN(C)Cc1ccc(-c2ccccc2)cc1	inactive
Cc1cccc(NC(=O)Nc2ccc3c(c2)C(=O)N(C)[C@H]2CC[C@H](CC(=O)NCc4ccccc4Cl)O[C@@H]2CO3)c1	inactive
C[C@H](CO)N1C[C@H](C)[C@@H](CN(C)Cc2ccc(Cl)c(Cl)c2)Oc2c(NC(=O)C3CCCCC3)cccc2C1=O	inactive
C[C@@H]1CN([C@@H](C)CO)C(=O)Cc2cc(NC(=O)Nc3ccccc3)ccc2O[C@@H]1CN(C)S(C)(=O)=O	inactive
C[C@@H]1CN([C@H](C)CO)C(=O)c2cc(NC(=O)Cc3ccccc3)ccc2O[C@@H](C)CCCCO[C@H]1CN(C)C(=O)Cc1ccccc1	inactive
C[C@@H]1CN([C@H](C)CO)C(=O)Cc2cc(NC(=O)Nc3cccc4ccccc34)ccc2O[C@@H]1CN(C)S(=O)(=O)c1cccs1	inactive
C[C@H]1CN([C@@H](C)CO)C(=O)c2cccc(NC(=O)c3ccc(-c4nccs4)cc3)c2O[C@@H]1CN(C)Cc1ccc(Oc2ccccc2)cc1	inactive
C[C@H]1CCCCO[C@H](CN(C)S(=O)(=O)c2ccccc2)[C@@H](C)CN([C@@H](C)CO)C(=O)c2cc(NC(=O)CCC(F)(F)F)ccc2O1	inactive
Cc1cc(C(=O)Nc2cccc3c2O[C@H](CN(C)S(=O)(=O)c2c(C)noc2C)[C@H](C)CN([C@H](C)CO)C3=O)n(C)n1	inactive
